{
  "source": "PubChem BioAssay AID504333",
  "about": "(National Center for Advancing Translational Sciences (NCATS), 2011)",
  "note": "The campaign covered roughly 360,000 compounds. About 16,000 (4.4%) were called active. The inconclusive results got no clear call from the source; some entries with a clear call stand among them for comparison. Calls come from the whole dose curve; as a rule, active = well fitted inhibition curve with a large enough effect; inconclusive = small, poorly fitted or top-dose-only effect; inactive = no such curve, though single readings can be large or run the other way. Potencies beside an inconclusive call are fits to weak or partial responses and may not hold up. Potency is the fitted concentration of half-maximal effect; tags give direction and shape of the fitted curve.",
  "data": [
    {"target": "Bromodomain adjacent to zinc finger domain protein 2B (Homo sapiens) (UniProt Q9UIF8)", "sequence (Q9UIF8 whole entry, looked up, the tested form may be a part)": "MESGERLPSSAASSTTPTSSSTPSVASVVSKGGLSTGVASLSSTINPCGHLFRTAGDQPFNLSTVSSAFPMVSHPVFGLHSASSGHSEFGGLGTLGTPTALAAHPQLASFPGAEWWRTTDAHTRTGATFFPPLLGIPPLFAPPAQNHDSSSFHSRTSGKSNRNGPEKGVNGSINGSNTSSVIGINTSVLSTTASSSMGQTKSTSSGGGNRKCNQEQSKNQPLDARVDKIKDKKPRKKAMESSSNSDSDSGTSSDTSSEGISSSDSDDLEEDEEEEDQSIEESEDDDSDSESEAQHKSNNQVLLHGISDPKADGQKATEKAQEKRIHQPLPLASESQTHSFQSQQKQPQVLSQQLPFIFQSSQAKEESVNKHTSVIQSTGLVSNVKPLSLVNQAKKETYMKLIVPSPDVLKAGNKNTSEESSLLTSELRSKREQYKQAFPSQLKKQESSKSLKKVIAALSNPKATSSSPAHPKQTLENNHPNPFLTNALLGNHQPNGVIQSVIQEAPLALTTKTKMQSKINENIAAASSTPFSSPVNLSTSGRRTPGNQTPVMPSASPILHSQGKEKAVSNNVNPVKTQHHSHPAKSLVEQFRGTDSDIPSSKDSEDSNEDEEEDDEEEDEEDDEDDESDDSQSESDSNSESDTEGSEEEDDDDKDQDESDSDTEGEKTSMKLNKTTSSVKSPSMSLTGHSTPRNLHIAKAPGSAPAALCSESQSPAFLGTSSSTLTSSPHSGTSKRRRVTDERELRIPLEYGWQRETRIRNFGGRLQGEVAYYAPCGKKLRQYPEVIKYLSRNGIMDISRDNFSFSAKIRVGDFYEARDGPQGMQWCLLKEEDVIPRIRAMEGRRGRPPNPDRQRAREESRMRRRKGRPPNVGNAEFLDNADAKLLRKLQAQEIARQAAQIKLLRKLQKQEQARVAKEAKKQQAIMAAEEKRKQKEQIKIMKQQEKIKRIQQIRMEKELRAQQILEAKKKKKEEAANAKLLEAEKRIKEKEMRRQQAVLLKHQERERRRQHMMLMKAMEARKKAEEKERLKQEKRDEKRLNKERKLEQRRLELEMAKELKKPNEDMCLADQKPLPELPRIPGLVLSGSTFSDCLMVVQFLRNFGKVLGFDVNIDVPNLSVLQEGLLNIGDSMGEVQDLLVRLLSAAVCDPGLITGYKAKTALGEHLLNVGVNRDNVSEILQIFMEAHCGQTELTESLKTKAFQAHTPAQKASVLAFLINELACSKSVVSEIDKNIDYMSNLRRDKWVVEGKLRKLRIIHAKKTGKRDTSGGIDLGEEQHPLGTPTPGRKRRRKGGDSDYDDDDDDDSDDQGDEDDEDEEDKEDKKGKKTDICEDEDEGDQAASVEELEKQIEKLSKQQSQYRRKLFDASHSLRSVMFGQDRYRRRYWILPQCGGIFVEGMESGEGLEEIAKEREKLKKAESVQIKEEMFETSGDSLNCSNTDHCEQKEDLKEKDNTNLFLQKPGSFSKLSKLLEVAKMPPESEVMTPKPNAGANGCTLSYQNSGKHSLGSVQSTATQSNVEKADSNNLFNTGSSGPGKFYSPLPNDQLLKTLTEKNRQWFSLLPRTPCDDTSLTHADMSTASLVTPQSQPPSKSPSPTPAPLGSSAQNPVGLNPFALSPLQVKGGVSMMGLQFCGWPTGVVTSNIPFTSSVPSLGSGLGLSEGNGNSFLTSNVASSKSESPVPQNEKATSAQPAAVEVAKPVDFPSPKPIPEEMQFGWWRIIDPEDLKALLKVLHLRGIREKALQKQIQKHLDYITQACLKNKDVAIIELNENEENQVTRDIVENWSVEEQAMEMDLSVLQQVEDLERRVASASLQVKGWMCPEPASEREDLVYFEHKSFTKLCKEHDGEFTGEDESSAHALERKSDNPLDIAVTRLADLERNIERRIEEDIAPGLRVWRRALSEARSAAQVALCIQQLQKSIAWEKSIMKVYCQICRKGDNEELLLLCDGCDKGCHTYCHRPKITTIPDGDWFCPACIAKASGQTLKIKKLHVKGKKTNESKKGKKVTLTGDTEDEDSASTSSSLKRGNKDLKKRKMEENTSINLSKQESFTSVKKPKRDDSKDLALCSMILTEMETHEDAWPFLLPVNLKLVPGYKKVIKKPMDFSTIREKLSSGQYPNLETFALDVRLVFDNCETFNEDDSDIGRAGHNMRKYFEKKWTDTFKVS", "experiment": "qHTS Assay for Inhibitors of BAZ2B; note: nearly all actives have a fitted effect of over 60% in size", "details": "AlphaScreen BAZ2B-H3K14Ac peptide displacement; series mostly up to 114 µM", "in_short": "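Compounds, titrated to a top concentration of 110 uM, were incubated 30 min at room temperature with preformed BAZ2B/acetyl-K14 H3 peptide complex (50 nM each). Proximity signal was measured by AlphaScreen after 20 min with beads.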", "values": [
      {"smiles": "CCCCn1c(=O)[nH]c2nc3cc(NC(C)=O)ccc3nc2c1=O", "Potency": "inconclusive: 79.4 µM [inhibitor, single point]"},
      {"smiles": "COc1ccc(CCN(C)Cc2ccc(OC)c(OCc3ccccc3)c2)cc1OC", "Potency": "inconclusive: 50.1 µM [inhibitor, partial curve]"},
      {"smiles": "CN(C)S(=O)(=O)N1CCC(n2cnc3cccnc32)CC1", "Potency": "inactive"},
      {"smiles": "CNC(=S)N/N=C/c1ccc(-c2ccc(C(=O)O)cc2)o1", "Potency": "inconclusive: 79.4 µM [inhibitor, single point]"},
      {"smiles": "COc1ccc(CNC(=O)CCCC(=O)Nc2cccc(Br)c2)cc1", "Potency": "inactive"},
      {"smiles": "O=C(NC1CCCC1)C(=O)c1c[nH]c2ccccc12", "Potency": "inactive"},
      {"smiles": "O=C(NNC(=O)C1C2C=CC(C2)C1C(=O)O)c1ccccc1O", "note": "(stereo not given)", "Potency": "active: 50.1 µM"},
      {"smiles": "Cc1noc(NS(=O)(=O)c2ccc(NC(=O)c3nn(-c4ccccc4)ccc3=O)cc2)c1C", "Potency": "inconclusive: 79.4 µM [inhibitor, single point]"},
      {"smiles": "COc1ccccc1-n1c(C)nnc1SCC(=O)Nc1cccc(C(C)=O)c1", "Potency": "inactive"},
      {"smiles": "COc1cc(/C=C2/S/C(=N/S(=O)(=O)Cc3ccccc3)NC2=O)c([N+](=O)[O-])cc1OC", "Potency": "inconclusive: 79.4 µM [inhibitor, single point]"},
      {"smiles": "Cc1cccc(-n2c(N)cc(=O)[nH]c2=S)c1", "Potency": "inactive"},
      {"smiles": "Cc1cc([N+](=O)[O-])ccc1NC(=S)NC(=O)C(c1ccccc1)c1ccccc1", "Potency": "inconclusive: 35.5 µM [inhibitor, partial curve]"},
      {"smiles": "COC(=O)[C@@]12CCCCN1[C@H](c1ccc(SC3CCCCC3)cc1)[C@@H]1C(=O)N(C)C(=O)[C@@H]12", "Potency": "inactive"},
      {"smiles": "Cc1ccc(NC(=O)c2nc(S(=O)(=O)Cc3cccc(C)c3)ncc2Cl)cc1", "Potency": "inconclusive: 22.4 µM [inhibitor, full curve]"},
      {"smiles": "CCc1nc(Nc2ccc(O)cc2)c2oc3ccccc3c2n1", "Potency": "inconclusive: 79.4 µM [inhibitor, single point]"},
      {"smiles": "Cc1cccc(-c2nc(Nc3ccc(N4CCOCC4)cc3)c3ccccc3n2)c1", "Potency": "active: 25.1 µM"},
      {"smiles": "N#CCSc1nnc(Cc2ccc3c(c2)OCO3)o1", "Potency": "inactive"},
      {"smiles": "O=[N+]([O-])c1cc(S(=O)(=O)N2CCCCC2)ccc1NCCCN1CCOCC1", "Potency": "inconclusive: 89.1 µM [inhibitor, single point]"},
      {"smiles": "COCCn1c(C)cc(C(=O)CSc2nc(C)c(C)c(C)n2)c1C", "Potency": "inconclusive: 70.8 µM [inhibitor, single point]"},
      {"smiles": "Cc1cccc(C2c3[nH]c4ccccc4c3CCN2C(=O)c2cn(C)c3ccccc3c2=O)n1", "note": "(stereo not given)", "Potency": "inconclusive: 50.1 µM [inhibitor, partial curve]"},
      {"smiles": "CC1CCC/C(=C\\Nc2ccccc2C(=O)O)C1=O", "note": "(stereo not given)", "Potency": "inconclusive: 89.1 µM [inhibitor, single point]"},
      {"smiles": "Cc1cccc2cc3c(nc12)SC(=NCC1CCCO1)N(Cc1ccco1)C3", "note": "(stereo not given)", "Potency": "inconclusive: 79.4 µM [inhibitor, single point]"},
      {"smiles": "COc1ccc(C2=NN(c3nc(C(=O)O)cs3)C(O)(C(F)(F)F)C2)c(OC)c1", "note": "(stereo not given)", "Potency": "active: 50.1 µM"},
      {"smiles": "COc1ccc(NC(=O)CSc2nc(-c3ccc(OC)cc3)cc(=O)[nH]2)cc1", "Potency": "inactive"},
      {"smiles": "CCOC(=O)c1cc(S(=O)(=O)Nc2ccc(OC(F)(F)F)cc2)[nH]n1", "Potency": "active: 50.1 µM"},
      {"smiles": "O=[N+]([O-])c1ccc(Cl)c(S(=O)(=O)n2ccnc2)c1", "Potency": "inconclusive: 79.4 µM [inhibitor, single point]"},
      {"smiles": "COc1ccc(C)cc1S(=O)(=O)Nc1cccc(-c2ccc(N3CCC(C)CC3)nn2)c1", "Potency": "inactive"},
      {"smiles": "CCc1ncc(CN2CCCC(C(=O)Nc3cccc(-c4cccc(C)c4)c3)C2)cn1", "note": "(stereo not given)", "Potency": "inactive"},
      {"smiles": "O=C(Nc1ccc(Cl)cc1C(F)(F)F)C(Sc1cccc[n+]1[O-])c1ccccc1", "note": "(stereo not given)", "Potency": "inconclusive: 89.1 µM [inhibitor, single point]"},
      {"smiles": "CCn1cc(CN2CCc3c([nH]c4ccccc34)C2c2cccc(O)c2)c(C)n1", "note": "(stereo not given)", "Potency": "inconclusive: 50.1 µM [inhibitor, partial curve]"},
      {"smiles": "CC1(C)CC(=O)C(N=Nc2cccc([N+](=O)[O-])c2)=C(O)C1", "Potency": "inconclusive: 79.4 µM [inhibitor, single point]"},
      {"smiles": "Cc1ccc(CSCc2nnc(SCC(=O)N3CCN(c4ccccc4)CC3)n2C)cc1", "Potency": "inconclusive: 50.1 µM [inhibitor, partial curve]"},
      {"smiles": "COc1ccc(-c2[nH]ncc2C(=O)NCc2ccc(F)cc2)cc1", "Potency": "inactive"},
      {"smiles": "O=[N+]([O-])c1cccc(CN2CCN(c3cccc4[nH]ccc34)CC2)c1", "Potency": "inconclusive: 50.1 µM [inhibitor, partial curve]"},
      {"smiles": "O=C(Nc1ccc2oc(-c3ccncc3)nc2c1)c1ccc2c(c1)OCO2", "Potency": "inconclusive: 89.1 µM [inhibitor, single point]"},
      {"smiles": "CCCCNC(=O)Nc1nnc(-c2ccccc2)o1", "Potency": "inconclusive: 79.4 µM [inhibitor, single point]"},
      {"smiles": "Cc1ccc(-c2cc(-c3ccc(C)o3)nc(N)c2C#N)cc1", "Potency": "active: 70.8 µM"},
      {"smiles": "Cc1ccccc1NC(=O)CSc1nnc(-c2ccoc2C)n1CCc1ccccc1", "Potency": "inconclusive: 39.8 µM [inhibitor, partial curve]"},
      {"smiles": "COc1cccc(CNC(=O)CCC(=O)N2CC3CCCN3c3ccccc32)c1", "note": "(stereo not given)", "Potency": "inconclusive: 31.6 µM [inhibitor, full curve]"},
      {"smiles": "Cc1ccccc1NC(=O)CN(C)S(=O)(=O)c1cccc2nsnc12", "Potency": "inactive"},
      {"smiles": "COc1ccc(OC)c(-c2cc(C(F)(F)F)c3c(n2)sc2c(O)cc(=O)[nH]c23)c1", "Potency": "inconclusive: 89.1 µM [inhibitor, single point]"},
      {"smiles": "COc1ccc(NC(=S)N2CCc3ccccc32)cc1OC", "Potency": "inconclusive: 89.1 µM [inhibitor, single point]"},
      {"smiles": "COCC(C)n1c(C)cc(C(=O)COc2ccc(S(=O)(=O)N3CCOCC3)cc2Cl)c1C", "note": "(stereo not given)", "Potency": "inconclusive: 89.1 µM [inhibitor, single point]"},
      {"smiles": "COc1ccccc1OCc1ccc(C(=O)Nc2ccc(C)c(C)c2)o1", "Potency": "inactive"},
      {"smiles": "Cc1ccc(NC(=O)CSc2n[nH]c(-c3ccncc3)n2)cc1", "Potency": "inactive"}
    ]}
  ]
}
